Measurements: the supplement of paper PMC12423691
This is one part of the list. Binding of human transcription factors and regulators to the viral nucleoprotein by AlphaScreen, crude cell-free proteins, amounts not normalised, one pass. Fold of the Venus control; higher = more signal. No active / inactive call. Single-pass screen; sequences are the whole Swiss-Prot entries looked up by name.

The substances below were run on nucleoprotein N of Crimean-Congo hemorrhagic fever virus (assay: AlphaScreen luminescence signal relative to Venus negative control (fold); higher = stronger binding to CCHFV N).
Experimental: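 AlphaScreen binding of cell-free made, FLAG-GST-tagged human transcription factors and regulators (crude translation products) to biotinylated N protein; signal as fold of the FLAG-GST-Venus control. One pass.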
In the case of ZKSCAN7, Q9P0L1, the AlphaScreen luminescence signal was 1.53. For ZIM3, Q96PE6, the AlphaScreen luminescence signal was 2.14. Substance HOXB8, P17481 has an AlphaScreen luminescence signal of 5.12. With ZNF571, Q7Z3V5 the AlphaScreen luminescence signal was 2.88. ZNF397, Q8NF99 gave an AlphaScreen luminescence signal of 1.35. For ZNF623, O75123, the AlphaScreen luminescence signal was 2.7. Work on MEOX1, P50221 yielded an AlphaScreen luminescence signal of 2.84. With ST18, O60284 the AlphaScreen luminescence signal was 2.28. In the case of SOX5, P35711, the AlphaScreen luminescence signal was 2.79. In the case of ZKSCAN1, P17029, the AlphaScreen luminescence signal was 2.79. For ZNF418, Q8TF45, the AlphaScreen luminescence signal was 3.12. In the case of ZNF263, O14978, the AlphaScreen luminescence signal was 2.42. MZF1, P28698 showed an AlphaScreen luminescence signal of 1.44. OTX2, P32243 gave an AlphaScreen luminescence signal of 2.51. ARNT, P27540 gave an AlphaScreen luminescence signal of 2.56. Substance HOXC6, P09630 has an AlphaScreen luminescence signal of 7.86. With ZNF649, Q9BS31 the AlphaScreen luminescence signal was 2.56. ZNF135, P52742 gave an AlphaScreen luminescence signal of 2.09. PRDM1, O75626 was tested, and the AlphaScreen luminescence signal was 2.84. Work on MYT1L, Q9UL68 yielded an AlphaScreen luminescence signal of 2.09. Substance ZSCAN22, P10073 has an AlphaScreen luminescence signal of 1.3. NHLH1, Q02575 showed an AlphaScreen luminescence signal of 2.37. In the case of ZNF154, Q13106, the AlphaScreen luminescence signal was 2.42. In the case of ZNF500, O60304, the AlphaScreen luminescence signal was 2. For PITX3, O75364, the AlphaScreen luminescence signal was 2.37. ZNF480, Q8WV37 showed an AlphaScreen luminescence signal of 2.6. Substance ZNF292, O60281 has an AlphaScreen luminescence signal of 1.53. With ZNF92, Q03936 the AlphaScreen luminescence signal was 6.88. In the case of ZNF549, Q6P9A3, the AlphaScreen luminescence signal was 3.58. ZNF227, Q86WZ6 showed an AlphaScreen luminescence signal of 1.77. ZFP69B, Q9UJL9 gave an AlphaScreen luminescence signal of 1.81. Substance ZNF224, Q9NZL3 has an AlphaScreen luminescence signal of 2.6. In the case of ZFHX3, Q15911, the AlphaScreen luminescence signal was 2.14. ZNF792, Q3KQV3 was tested, and the AlphaScreen luminescence signal was 1.16. For HIF3A, Q9Y2N7, the AlphaScreen luminescence signal was 3.72. PLA2G1B, P04054 showed an AlphaScreen luminescence signal of 2.56. With CIR1, Q86X95 the AlphaScreen luminescence signal was 4.51. With NEUROD6, Q96NK8 the AlphaScreen luminescence signal was 2.51. In the case of ZIM2, Q9NZV7, the AlphaScreen luminescence signal was 1.91. For ZNF45, Q02386, the AlphaScreen luminescence signal was 3.86. For ZSCAN2, Q7Z7L9, the AlphaScreen luminescence signal was 0.884. ZNF431, Q8TF32 gave an AlphaScreen luminescence signal of 2.51. ZNF37A, P17032 was tested, and the AlphaScreen luminescence signal was 3.26. WT1, P19544 gave an AlphaScreen luminescence signal of 1.63. NKX3-2, P78367 gave an AlphaScreen luminescence signal of 1.95. With ALX4, Q9H161 the AlphaScreen luminescence signal was 4.33. ZNF548, Q8NEK5 showed an AlphaScreen luminescence signal of 2.74. ZNF629, Q9UEG4 showed an AlphaScreen luminescence signal of 1.72. In the case of SOX17, Q9H6I2, the AlphaScreen luminescence signal was 2.93. In the case of ZNF133, P52736, the AlphaScreen luminescence signal was 2.37. In the case of DMRT1, Q9Y5R6, the AlphaScreen luminescence signal was 3.21. For ZNF140, P52738, the AlphaScreen luminescence signal was 3.81. ZIK1, Q3SY52 showed an AlphaScreen luminescence signal of 2.6. HOXA4, Q00056 was tested, and the AlphaScreen luminescence signal was 1.21. Substance DMRTC2, Q8IXT2 has an AlphaScreen luminescence signal of 1.53. Work on ZNF24, P17028 yielded an AlphaScreen luminescence signal of 1.67. In the case of HOXD13, P35453, the AlphaScreen luminescence signal was 2.37. PHOX2A, O14813 showed an AlphaScreen luminescence signal of 2.7. KLF12, Q9Y4X4 showed an AlphaScreen luminescence signal of 4.79. In the case of GATA3, P23771, the AlphaScreen luminescence signal was 2.84. MSRB2, Q9Y3D2 was tested, and the AlphaScreen luminescence signal was 4.05. Substance SHOX, O15266 has an AlphaScreen luminescence signal of 1.91. PRKCB, P05771 was tested, and the AlphaScreen luminescence signal was 2.74. With GATA4, P43694 the AlphaScreen luminescence signal was 2. With ZNF23, P17027 the AlphaScreen luminescence signal was 1.35. Work on SOX11, P35716 yielded an AlphaScreen luminescence signal of 8.6. HOXB7, P09629 gave an AlphaScreen luminescence signal of 4.88. TAF6, P49848 showed an AlphaScreen luminescence signal of 2.28. In the case of HOXD4, P09016, the AlphaScreen luminescence signal was 3.72. TFAP2D, Q7Z6R9 was tested, and the AlphaScreen luminescence signal was 3.49. For PDX1, P52945, the AlphaScreen luminescence signal was 4.37. Substance ZNF415, Q09FC8 has an AlphaScreen luminescence signal of 1.44. Substance ZNF3, P17036 has an AlphaScreen luminescence signal of 2.05. ZNF641, Q96N77 was tested, and the AlphaScreen luminescence signal was 3.63. With ZNF132, P52740 the AlphaScreen luminescence signal was 2.47. With NRL, P54845 the AlphaScreen luminescence signal was 3.72. ZNF773, Q6PK81 was tested, and the AlphaScreen luminescence signal was 2. In the case of ZNF197, O14709, the AlphaScreen luminescence signal was 3.16. With ZNF726, A6NNF4 the AlphaScreen luminescence signal was 2.23. DLX3, O60479 showed an AlphaScreen luminescence signal of 2.93. Substance MECOM, Q03112 has an AlphaScreen luminescence signal of 1.49. ZFP3, Q96NJ6 showed an AlphaScreen luminescence signal of 1.63. HOXD10, P28358 gave an AlphaScreen luminescence signal of 2.98. For BACH2, Q9BYV9, the AlphaScreen luminescence signal was 1.16. BMP7, P18075 gave an AlphaScreen luminescence signal of 2.28. Work on EDA, Q92838 yielded an AlphaScreen luminescence signal of 3.81. ZNF311, Q5JNZ3 showed an AlphaScreen luminescence signal of 3.26. In the case of DMBX1, Q8NFW5, the AlphaScreen luminescence signal was 3.02. Work on ZNF540, Q8NDQ6 yielded an AlphaScreen luminescence signal of 5.35. With ETV5, P41161 the AlphaScreen luminescence signal was 3.3. Work on DLX6, P56179 yielded an AlphaScreen luminescence signal of 7.58. ZNF286A, Q9HBT8 gave an AlphaScreen luminescence signal of 3.49. Work on ZNF880, Q6PDB4 yielded an AlphaScreen luminescence signal of 1.58. With ZSCAN30, Q86W11 the AlphaScreen luminescence signal was 1.72. With RBPJ, Q06330 the AlphaScreen luminescence signal was 3.49. Work on DLX5, P56178 yielded an AlphaScreen luminescence signal of 2.84. NHLH2, Q02577 was tested, and the AlphaScreen luminescence signal was 2.19. Work on ZNF420, Q8TAQ5 yielded an AlphaScreen luminescence signal of 2.33. Substance PAX8, Q06710 has an AlphaScreen luminescence signal of 2.93. In the case of ZNF8, P17098, the AlphaScreen luminescence signal was 2.19. MAFB, Q9Y5Q3 was tested, and the AlphaScreen luminescence signal was 5.12. TAF10, Q12962 showed an AlphaScreen luminescence signal of 1.12. ZNF383, Q8NA42 was tested, and the AlphaScreen luminescence signal was 2.05. In the case of ZNF490, Q9ULM2, the AlphaScreen luminescence signal was 2.42. GATA1, P15976 was tested, and the AlphaScreen luminescence signal was 2.56. Substance OTX1, P32242 has an AlphaScreen luminescence signal of 1.4. ZNF189, O75820 was tested, and the AlphaScreen luminescence signal was 1.26. ZNF454, Q8N9F8 showed an AlphaScreen luminescence signal of 1.95. Work on ZNF808, Q8N4W9 yielded an AlphaScreen luminescence signal of 1.26. EGR2, P11161 was tested, and the AlphaScreen luminescence signal was 3.3. For ZNF256, Q9Y2P7, the AlphaScreen luminescence signal was 3.63. ZNF267, Q14586 was tested, and the AlphaScreen luminescence signal was 1.44. ZNF2, Q9BSG1 was tested, and the AlphaScreen luminescence signal was 1.77. With ZNF350, Q9GZX5 the AlphaScreen luminescence signal was 2.33. KLF2, Q9Y5W3 showed an AlphaScreen luminescence signal of 5.35. For NCOR1, O75376, the AlphaScreen luminescence signal was 1.81. Work on ELF4, Q99607 yielded an AlphaScreen luminescence signal of 4.14. Substance LHX6, Q9UPM6 has an AlphaScreen luminescence signal of 1.35. KLF15, Q9UIH9 gave an AlphaScreen luminescence signal of 6.65. For KLF1, Q13351, the AlphaScreen luminescence signal was 4.05. With ZNF317, Q96PQ6 the AlphaScreen luminescence signal was 1.95. Work on KLF9, Q13886 yielded an AlphaScreen luminescence signal of 2.47. For SOX21, Q9Y651, the AlphaScreen luminescence signal was 1.77. For YBX3, P16989, the AlphaScreen luminescence signal was 3.02. With ZNF211, Q13398 the AlphaScreen luminescence signal was 2.09. HOXD9, P28356 was tested, and the AlphaScreen luminescence signal was 4.37. ZFP37, Q9Y6Q3 gave an AlphaScreen luminescence signal of 3.91. Substance MAFK, O60675 has an AlphaScreen luminescence signal of 2.19. MSX1, P28360 was tested, and the AlphaScreen luminescence signal was 2.05.
